The target of experiment [1] is GFI1 (endogenous) (human (endogenous in THP-1 and Kasumi cells)) (UniProt Q99684). The experiment is described as follows: SEC; nuclear extracts of Kasumi cells on Superose 6 10/300 in 50 mM sodium phosphate pH 7, 150 mM NaCl, 10% glycerol, 0.5% NP40, 0.5% Triton-X100; 0.5 ml fractions TCA-precipitated and blotted; GFI1 peaks at around 2 MDa and 0.5 MDa.
Experiment [2] concerns the target GFI1-Flag fusion protein (full-length Flag-tagged GFI1) (UniProt Q99684). The experiment is described as follows: co-IP; immunoprecipitation of extracts from transfected HEK293T cells expressing Flag-tagged GFI1 (Suppl. Fig. 1F); precipitating antibody not given.
Experiment [3] addresses metastasis-associated 2 (MTA2) (human (endogenous in HEK293T, THP-1 and Kasumi cells)) (UniProt O94776). The experiment is described as follows: co-IP; extracts of HEK293T cells transfected with Flag-tagged GFI1 truncation and deletion mutants precipitated with anti CHD4 or anti MTA2 antibodies; western blot with anti-Flag.
In experiment [4] the target is chromodomain helicase DNA binding protein 4 (CHD4) (human (endogenous in HEK293T, THP-1 and Kasumi cells)) (UniProt Q14839). The experiment is described as above.
Experiment [5] has as its target RCOR1 (human (endogenous in HEK293T and Kasumi cells)) (UniProt Q9UKL0). The experiment is described as follows: co-IP; extracts of HEK293T cells transfected or not with full-length Flag-tagged GFI1, precipitated with anti-MTA2 or anti-RCOR1 antibodies; western blot for MTA2, RCOR1, LSD1 or GFI1. (In general: Immunoblotting shows a protein as a band on a membrane.)
Experiment [6] addresses metastasis-associated 2 (MTA2) (human (endogenous in HEK293T, THP-1 and Kasumi cells)) (UniProt O94776). The description is as above.
Experiment [7] shares this target. The experiment is described as follows: co-IP; THP-1 cell extracts, immunoprecipitation with anti GFI1 or anti MTA2 antibodies; western blot for CHD4, MTA2 or GFI1; all endogenous.
The target in experiment [8] is GFI1-Flag fusion protein (full-length Flag-tagged GFI1) (UniProt Q99684). The experiment is described as follows: co-IP; nuclear extracts of HEK293T cells expressing Flag-tagged GFI1 or GFI1B precipitated with anti-Flag agarose; western blot for endogenous proteins.
The target in experiment [9] is GFI1B-Flag-tagged fusion protein (UniProt Q5VTD9). The description is as above.
The target of experiment [10] is GFI1 (endogenous) (human (endogenous in THP-1 and Kasumi cells)) (UniProt Q99684). The experiment is described as follows: co-IP; THP-1 cell extracts, immunoprecipitation with anti GFI1 or anti MTA2 antibodies; western blot for CHD4, MTA2 or GFI1; all endogenous.

Chains of the proteins cited; added tags and fusions are not shown. Lines headed by an entry give the natural chain unless they say otherwise; changes in a name come on top.
UniProt Q99684: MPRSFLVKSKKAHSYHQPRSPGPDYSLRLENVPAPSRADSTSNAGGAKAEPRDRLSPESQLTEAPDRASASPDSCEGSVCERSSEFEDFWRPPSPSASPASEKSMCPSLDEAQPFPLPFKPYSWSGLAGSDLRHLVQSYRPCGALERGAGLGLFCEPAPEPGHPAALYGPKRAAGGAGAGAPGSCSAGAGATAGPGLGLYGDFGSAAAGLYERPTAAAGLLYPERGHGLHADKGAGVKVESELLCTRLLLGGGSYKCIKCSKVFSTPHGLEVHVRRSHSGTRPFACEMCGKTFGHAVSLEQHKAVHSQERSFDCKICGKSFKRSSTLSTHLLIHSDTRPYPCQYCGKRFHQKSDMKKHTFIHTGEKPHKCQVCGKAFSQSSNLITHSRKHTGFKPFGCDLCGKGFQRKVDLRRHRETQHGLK
UniProt O94776: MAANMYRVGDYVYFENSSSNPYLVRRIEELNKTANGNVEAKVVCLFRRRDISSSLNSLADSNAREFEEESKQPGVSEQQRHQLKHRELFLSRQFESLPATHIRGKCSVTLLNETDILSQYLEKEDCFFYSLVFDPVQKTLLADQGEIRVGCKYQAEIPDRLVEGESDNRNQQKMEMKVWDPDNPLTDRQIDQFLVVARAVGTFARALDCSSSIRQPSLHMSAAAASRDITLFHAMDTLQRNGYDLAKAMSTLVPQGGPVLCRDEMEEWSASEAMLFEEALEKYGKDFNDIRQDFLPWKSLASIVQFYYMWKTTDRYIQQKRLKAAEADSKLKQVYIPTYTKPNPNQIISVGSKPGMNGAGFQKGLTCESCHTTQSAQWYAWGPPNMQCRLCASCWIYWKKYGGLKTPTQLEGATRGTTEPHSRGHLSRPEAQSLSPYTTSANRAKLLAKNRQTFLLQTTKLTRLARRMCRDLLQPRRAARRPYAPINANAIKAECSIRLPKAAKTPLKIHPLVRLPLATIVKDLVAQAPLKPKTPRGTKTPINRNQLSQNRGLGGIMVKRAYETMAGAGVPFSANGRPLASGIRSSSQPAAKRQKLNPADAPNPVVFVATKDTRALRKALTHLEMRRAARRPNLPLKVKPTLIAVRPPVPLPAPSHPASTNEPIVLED
UniProt Q14839: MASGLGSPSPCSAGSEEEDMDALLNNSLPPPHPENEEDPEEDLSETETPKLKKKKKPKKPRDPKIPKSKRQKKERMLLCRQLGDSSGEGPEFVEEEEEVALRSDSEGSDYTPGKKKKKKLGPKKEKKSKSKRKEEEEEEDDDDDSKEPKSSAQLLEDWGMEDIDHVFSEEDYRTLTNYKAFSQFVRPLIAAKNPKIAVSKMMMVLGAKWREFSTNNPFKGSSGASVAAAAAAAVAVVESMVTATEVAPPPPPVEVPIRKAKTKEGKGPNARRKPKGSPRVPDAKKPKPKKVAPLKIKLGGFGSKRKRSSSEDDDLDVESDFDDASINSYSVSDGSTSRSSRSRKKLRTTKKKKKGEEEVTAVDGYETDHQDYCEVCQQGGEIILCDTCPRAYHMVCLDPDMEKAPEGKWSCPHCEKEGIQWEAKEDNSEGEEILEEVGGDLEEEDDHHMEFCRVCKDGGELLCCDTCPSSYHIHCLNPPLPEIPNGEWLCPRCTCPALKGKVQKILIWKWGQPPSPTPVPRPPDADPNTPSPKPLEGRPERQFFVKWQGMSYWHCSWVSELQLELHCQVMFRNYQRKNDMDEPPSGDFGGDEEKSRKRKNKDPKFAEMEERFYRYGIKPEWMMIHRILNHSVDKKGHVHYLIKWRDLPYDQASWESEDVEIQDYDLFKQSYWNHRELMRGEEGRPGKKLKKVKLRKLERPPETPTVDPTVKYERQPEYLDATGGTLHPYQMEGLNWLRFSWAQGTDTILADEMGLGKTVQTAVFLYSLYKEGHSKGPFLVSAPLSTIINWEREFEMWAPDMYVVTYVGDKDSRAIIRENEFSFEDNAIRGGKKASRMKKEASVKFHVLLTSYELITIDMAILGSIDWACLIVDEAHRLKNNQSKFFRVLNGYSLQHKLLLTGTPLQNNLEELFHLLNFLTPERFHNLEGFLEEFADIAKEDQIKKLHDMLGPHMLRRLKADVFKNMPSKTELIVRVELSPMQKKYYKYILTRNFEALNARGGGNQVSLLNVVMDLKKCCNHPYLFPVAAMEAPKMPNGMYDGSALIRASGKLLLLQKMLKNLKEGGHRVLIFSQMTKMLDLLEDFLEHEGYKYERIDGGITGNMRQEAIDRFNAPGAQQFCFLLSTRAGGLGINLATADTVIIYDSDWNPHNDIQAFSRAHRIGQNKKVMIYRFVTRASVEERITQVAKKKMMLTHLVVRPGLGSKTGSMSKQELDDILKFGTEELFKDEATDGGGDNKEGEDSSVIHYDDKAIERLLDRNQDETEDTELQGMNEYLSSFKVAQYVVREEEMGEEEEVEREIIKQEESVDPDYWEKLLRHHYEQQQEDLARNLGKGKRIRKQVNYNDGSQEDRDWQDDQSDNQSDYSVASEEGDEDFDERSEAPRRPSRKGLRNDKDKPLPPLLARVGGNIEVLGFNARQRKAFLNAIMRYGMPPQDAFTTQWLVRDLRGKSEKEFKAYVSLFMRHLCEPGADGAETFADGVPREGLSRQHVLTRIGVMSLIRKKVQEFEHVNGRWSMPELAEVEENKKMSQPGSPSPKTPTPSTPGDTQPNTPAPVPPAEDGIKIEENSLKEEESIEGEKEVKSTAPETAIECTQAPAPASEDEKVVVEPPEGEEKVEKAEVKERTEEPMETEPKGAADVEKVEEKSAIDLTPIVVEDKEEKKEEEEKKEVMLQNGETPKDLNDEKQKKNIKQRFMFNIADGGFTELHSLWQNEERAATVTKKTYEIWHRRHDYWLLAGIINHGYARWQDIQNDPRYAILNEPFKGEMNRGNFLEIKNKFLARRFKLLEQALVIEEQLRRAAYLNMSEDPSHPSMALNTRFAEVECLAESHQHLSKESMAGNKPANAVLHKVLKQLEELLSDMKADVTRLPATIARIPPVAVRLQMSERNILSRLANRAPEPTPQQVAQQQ
UniProt Q9UKL0: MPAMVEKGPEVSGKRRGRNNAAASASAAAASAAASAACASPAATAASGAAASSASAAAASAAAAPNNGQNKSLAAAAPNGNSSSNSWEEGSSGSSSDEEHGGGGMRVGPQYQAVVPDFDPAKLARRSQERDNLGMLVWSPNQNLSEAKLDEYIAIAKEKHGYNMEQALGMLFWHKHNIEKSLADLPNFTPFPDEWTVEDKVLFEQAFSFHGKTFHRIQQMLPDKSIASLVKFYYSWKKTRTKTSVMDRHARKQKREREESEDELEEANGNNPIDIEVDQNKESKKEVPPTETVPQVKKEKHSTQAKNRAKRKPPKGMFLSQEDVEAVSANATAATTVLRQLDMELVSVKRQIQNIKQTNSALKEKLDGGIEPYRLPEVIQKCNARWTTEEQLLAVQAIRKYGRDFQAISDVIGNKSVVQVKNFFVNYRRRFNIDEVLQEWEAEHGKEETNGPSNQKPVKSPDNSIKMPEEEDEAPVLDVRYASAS
UniProt Q5VTD9: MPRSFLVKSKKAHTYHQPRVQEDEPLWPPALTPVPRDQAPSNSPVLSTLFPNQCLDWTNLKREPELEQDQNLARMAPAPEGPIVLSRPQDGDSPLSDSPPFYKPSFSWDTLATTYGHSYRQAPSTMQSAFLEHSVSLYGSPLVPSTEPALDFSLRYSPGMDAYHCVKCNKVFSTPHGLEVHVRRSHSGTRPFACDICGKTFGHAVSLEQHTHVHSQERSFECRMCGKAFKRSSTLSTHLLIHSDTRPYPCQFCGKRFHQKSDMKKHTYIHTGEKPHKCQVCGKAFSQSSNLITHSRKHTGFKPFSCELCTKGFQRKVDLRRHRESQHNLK
UniProt Q13547: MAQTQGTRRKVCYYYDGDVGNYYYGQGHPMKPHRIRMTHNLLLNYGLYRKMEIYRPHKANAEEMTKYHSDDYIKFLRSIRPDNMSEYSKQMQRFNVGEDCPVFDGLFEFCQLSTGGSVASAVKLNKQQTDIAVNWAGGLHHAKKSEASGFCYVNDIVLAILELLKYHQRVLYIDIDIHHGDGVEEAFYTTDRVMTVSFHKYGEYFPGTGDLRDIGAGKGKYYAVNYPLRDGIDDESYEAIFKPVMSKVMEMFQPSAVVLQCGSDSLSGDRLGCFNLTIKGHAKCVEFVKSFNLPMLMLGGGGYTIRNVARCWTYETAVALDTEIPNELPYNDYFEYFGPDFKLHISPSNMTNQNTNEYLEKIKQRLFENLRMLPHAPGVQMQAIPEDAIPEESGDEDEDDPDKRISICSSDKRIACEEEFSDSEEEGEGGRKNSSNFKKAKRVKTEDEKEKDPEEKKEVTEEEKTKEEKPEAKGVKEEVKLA

No constants are given. Whether binding was seen depends on the method and setting. For some of these results: Binding seen in cells or lysates may run through a third protein. Some results given as binding are weak or reduced against the parent protein; the word gives no strength.

With RCOR1 (from UniProt Q9UKL0 1-485), the binding entry in experiment [1] and in experiment [2] was “binds” in each case.

As to “GFI1-Flag fusion protein (full-length Flag-tagged GFI1) (from UniProt Q99684 1-422)”, the binding result in experiment [3], in experiment [4], in experiment [5] and in experiment [6] was “binds” each time.

As for “GFI1 (endogenous) (from UniProt Q99684 1-422)”, the binding result in [7] is given as “binds”.

In the case of “HDAC1 (from UniProt Q13547 1-482) (enzyme)”, the binding entry in experiment [8] and in experiment [9] was “binds” each time.

Consider “chromodomain helicase DNA binding protein 4 (CHD4) (from UniProt Q14839 1-1912)”, for which the binding result in experiment [8], in [9], in experiment [1], in [10] and in experiment [7] was “binds” throughout.

On to “truncated GFI1 protein N152–258-Flag (from UniProt Q99684 152-258) (domain or fragment)”, for which the binding result in experiment [3] and in experiment [4] was “no binding” each time.

The record behind these values is article PMC8639993.
